Some of the results follow.
system: PF3D7_0420300 AP2 domain 1 (GST-tagged); experiment: gcPBM binding intensity (ln(normalized median fluorescence intensity)); higher = stronger DNA binding
Procedure, shortened: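 An Agilent 4 × 180k array of primer-extended double-stranded 36-bp intergenic genomic probes, with negative controls, was incubated for 1 h with GST-tagged P. falciparum DNA-binding domains expressed in E. coli. Alexa488 anti-GST antibody detected bound protein, scanned at 488 nm. Binding intensity is the highest Masliner-normalised natural-log median intensity across replicate spots of either probe orientation.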

| Sequence | gcPBM binding intensity (ln) |
| --- | --- |
| ACAAAAAAATATTTATGTACTTATTATATTTATAAT [XGTACX_site2059] | 9.11 |
| ATAAAGAAATTACACACATGCAATGAAAAAAAAAAA [TGCATGCA_site406] | 9.62 |
| AATAAAATAAAAAAAAATAAAAAAAAAATAAAAAAT [XGTACX_negctrl_site245] | 9.71 |
| TATATATATATTTAATGTACATGTTTATTTTATCAT [XGTACX_site499] | 9.23 |
| TATTTTTCTTTTTAAGTGCATGGTTGTATAAAATTT [GTGCAC_site9480] | 9.23 |
| TTTATAAAGGGAAAGGTGCAAAAGGTGAAAGTTTTA | 9.38 |
| TCTTTTTTGAAGCATTTTGTTTTTTAATAAGTAAAA [TGCATGCA_negctrl_site247] | 8.85 |
| GAGTTTATATTTTAAGCATGCATATGTTATTATTAT [TGCATGCA_site1049] | 9.46 |
| TATATCAAAAACGAGACATGCATGCCGTTCATTTTG [TGCATGCA_site211] | 9.12 |
| TATATAAGAATATATACACACATATCTGTATTTATA [CACACA_site5231] | 9.37 |
| AAAAAAACAGAAAACACACAAATTATCTTATAATTA [CACACA_site6282] | 9.45 |
| TTATTAACGGAACTCTGTACTTAAAAAATTTTAGAA [XGTACX_site8787] | 8.97 |
| ATTGTTTCATTAAAATGTACATAAATTGTGTATAAT [XGTACX_site5341] | 9.2 |
| TAAAGCAACTGAAACACACAAATTTTTTTTTTTTTT [CACACA_site7499] | 9.4 |
| AAACTGAAAAAAATATGTACATATTTATATCTTATA [XGTACX_site3011] | 9.09 |
| ATTGTATAAAAATGTACATGCAATAAATTTAGTTCT [TGCATGCA_site675] | 9.18 |
| AAAAAAAAAAAACACACACACAAATACAAATACATA [CACACA_site415] | 10.2 |
| TAGTATAATATATATTGTACGTTTTAATTGTTTATA [XGTACX_site2731] | 9.18 |
| GAAACGTTTTTTCAGTGTACATTTTACCGATTTGTA [XGTACX_site8249] | 9.35 |
| ATATAATGAAGTGAATGTACATATAAAATGTAAAAA [XGTACX_site8052] | 9.46 |
| TCAAAATATCCAAAAGAATAAAGAAAAAAAAAAAGA [CACACA_negctrl_site1377] | 9.25 |
| TTTTTATAAATAATAAGGCGTATGAAAATAAAATAA [TGCATGCA_negctrl_site421] | 9.12 |

| Sequence | gcPBM binding intensity (ln) |
| --- | --- |
| TCAAATTTAATCATAACACACATTCACATATGAATT [CACACA_site3199] | 9.16 |
| ATATAACATTGTTTTGCATGTAAATATTCAATTTTT [TGCATGCA_site758] | 9.19 |
| TCATATATATATATATGTACATATTTATGTATGTAT [XGTACX_site6291] | 9.18 |
| ACATAGATCATAGGTTGTACGAAGGTATCCTTTATT [XGTACX_site694] | 9.36 |
| ACTTTTTGAATGTTTGCACACAAATCTCATAATTTT [CACACA_site358] | 9.54 |
| AAAAGGAGCAAATACAAAAAAATGAACAAAAAAAAA [CACACA_negctrl_site716] | 9.48 |
| TTTTTCTTTGAATAAATACACACGAGAAATGAAAGT [CACACA_site1688] | 9.52 |
| CATACCTATAGACACACACACACACGCACGCACAAA [CACACA_site6374] | 10.2 |
| TTTTGTAATGCTTTTTTTTTTTTTTTTTTTTTTTTT [CACACA_negctrl_site932] | 9.2 |
| TTTTTATTTTTTTATGCATGTGATGAAACGTGCCTA [TGCATGCA_site141] | 8.79 |
| TAATAAATCAAATGCACACACACAAAAAAAAAAAAA [CACACA_site161] | 10 |
| ATAATTAACAAATACACACACACACCCAGACAAAAA [CACACA_site4445] | 10.2 |
| TTAAAAGAAAATAGGTGTACACATAATATATACATA [XGTACX_site7697] | 9.39 |
| AAACAAATAAAAATATGTACACATTTTTTCATTATG [XGTACX_site5449] | 9.23 |
| AAAATATTAAATATGTGTACATATAATAGTTCAATG [XGTACX_site5957] | 9.3 |
| TTTTTAATCATAATATGTACATATAAAAATGGTTTG [XGTACX_site3996] | 9.06 |
| AATATGTCTTAAAAAAGTACATAAATTTTAACTTCA [XGTACX_site6670] | 8.84 |
| AACAATTAGAATAACGCATGCATTTATAATATAGAA [TGCATGCA_site595] | 9.3 |
| TGTGTATATATAAATACACACCAAATGTTAATATAT [CACACA_site8501] | 9.36 |
| ATACTGTATAGTCGCACACAAAAATATAAAATATTT [CACACA_site6004] | 9.41 |
| TTACACAAGGATAAAAACATATGTATGATTATATAT [CACACA_negctrl_site654] | 9.38 |
| AAAATTTGAAAAAGGGGTACTTAATAAAAGTTTCAT [XGTACX_site932] | 9.1 |

| Sequence | gcPBM binding intensity (ln) |
| --- | --- |
| AGTATTATTTACTGCGCATGCTATTTATATATATTA [TGCATGCA_site876] | 9.37 |
| ACCATATATTAAAAAGTGCATTAAATATATAAATAT [GTGCAC_site9443] | 9.08 |
| AATAGAAATTATATAAACATAAATGAATAAATAAAT [CACACA_negctrl_site1817] | 9.43 |
| AATTAAATGGATAAATGTACATATGTGAATATATTT [XGTACX_site84] | 9.35 |
| ATTTTATTTAAATACACACACATATATATATTATAT [CACACA_site4607] | 9.71 |
| CACAGACACCCATACACACACATACCCATATATATA [CACACA_site5023] | 10 |
| AATTATCAGGAATGATGTACTGAAATAAAAAAAAAA [XGTACX_site3280] | 9.11 |
| CTACATATGTATAATATGCACACGTCATTTTCCCCT [CACACA_site2107] | 9.41 |
| ACACAAAAATGAAAAATGAAAAGGGTAATATATATA [CACACA_negctrl_site1490] | 9.5 |
| AAAAAAAAAAAAAAAGCACACATCATATTTTAATTC [CACACA_site9109] | 9.35 |
| ACCCAAGAGAAAAGAGAAAGAAATATGTGTATATTG [GTGCAC_negctrl_site214] | 9.33 |
| ATATATATATATATAACATGCAAAGTTCAAAAAAAA [TGCATGCA_site943] | 9.37 |
| TTATAGTAATAATAATGTACATTTATACACATATAT [XGTACX_site1965] | 9.28 |
| AAAAAAAACAGACACACACACACATATACATACATA [CACACA_site2665] | 10.2 |
| TTTTTTTTATTATAAATATATATATTATAAAACGAA [XGTACX_negctrl_site189] | 8.76 |
| CATTCTACAATAAAAAGTACATATATATATTATATA [XGTACX_site921] | 9.11 |
| TCAAAAAAAATTTTAGTGCATATTTTAGTCAAAACA | 8.73 |
| TAATATTTCGTTAAGTTTTAAAGAAAAAAAAAAAAA [CACACA_negctrl_site1253] | 8.78 |
| ATTTAAATAATATGTACACACATTTAAAAAGTTATA [CACACA_site7347] | 9.29 |
| ACACATATAATAGTTACATGCAAAAATACTTTTATT [TGCATGCA_site785] | 9.52 |
| TTTTTATAACATAAAAGTACATATTTTTAATTTAAT [XGTACX_site4394] | 8.87 |
| AAATTAAATGATAGAGCATGCGCTAAAAATGAGAAA [TGCATGCA_site937] | 9.28 |

| Sequence | gcPBM binding intensity (ln) |
| --- | --- |
| AAATTAAAAATAATTACACACATAGAAAAGTTATAT [CACACA_site7137] | 9.72 |
| TTTTGCAAATATTACTGTACACAATCTCATATAATT [XGTACX_site2584] | 9.3 |
| TTTTCAGAAAGACATGCATACAAAAATAAAAAAGAT [TGCATGCA_site814] | 9.39 |
| AACAAAGAGAAATAAACACACACAAAATAAAGAAAA [CACACA_site8704] | 10.1 |
| ATTAATTAAAATAGTTGTACAATCAAAAAAACAAAA [XGTACX_site7660] | 9.47 |
| TTTTTGTATGCTTCCCGACTACATTATGTCGTAAAT [GTGCAC_negctrl_site164] | 9.34 |
| AGAATATATAAGTATACACACATATATATATATATA [CACACA_site201] | 9.33 |
| ATATCGAAAATTTGGTGTACATTTTTATTTGTTCAA [XGTACX_site3094] | 9.3 |
| GATATTACGTGTTTGGTATTTTTTGATGTTAATAGG [CACACA_negctrl_site105] | 9.51 |
| TATAAAATAATTAAATGTACATAATATATAAAATAT [XGTACX_site6777] | 9.31 |
| TTATAAATATTCACTGTGCACTGATGGAATATAAAT [GTGCAC_site9739] | 9.21 |
| TTTATTTTTCATTGGGGTACACAAGTTTATTTTTGA [XGTACX_site4262] | 9.22 |
| ATATCGTTTTTAAATTGTACATTCACTATAGAATAA [XGTACX_site6442] | 9.22 |
| TTCTTTGTTTTTTTTTTTTTTTTAAAAGATAATATT [XGTACX_negctrl_site381] | 9.13 |
| ATATATTTATTTTGTGCACACAACGCAAACCTTTTA [CACACA_site3508] | 9.53 |
| ATTTTTTCTTTTCGATGTACCCTTCTTATTCTTTAT [XGTACX_site3782] | 9.77 |
| TATATCGCCTTCAAAAGTACTCATATAAAAAAAAAA [XGTACX_site7123] | 8.8 |
| AAAAAAAAAAAAAAATGTACTTTTATTATTAATATA [XGTACX_site6357] | 8.86 |
| AGTTCATATTTAAAAAGTACATATTTAAAAACTTCT [XGTACX_site4882] | 8.98 |
| TTTGAACTTTTATATACACACATTATTATAGTATAG [CACACA_site6851] | 9.54 |
| ATGCATATATTTATGTGTACATATATTTGTAGGGGG [XGTACX_site6063] | 10.7 |
| TATTTGTTCTGATCCTTTTATTCAACTTTTTTTTTT [CACACA_negctrl_site978] | 9.56 |

Reference: the supplement of paper PMC11417369
